From paper PMC4098744, “Systematic family‐wide analysis of sodium bicarbonate cotransporter NBCn1/SLC4A7 interactions with PDZ scaffold proteins” (Physiological Reports, 2014) come the findings set out here.

No constants are given. Whether binding was seen depends on the method and setting. Binding seen in cells or lysates may run through a third protein. Some binding calls cover weakened binding; strength is not graded here. Tags and fused reporters may be left off the sequences shown.

What all share (experiment): pull-down; GST/syntrophin γ2 constructs on Glutathione-Sepharose beads incubated with membrane lysates of rat brains, 4°C, 4 h, PBS with 0.5% Nonidet P-40; blot with NBCn1 antibody; only the target purified
One experiment has as its target T1, GST/Syn‐full (human) (UniProt Q9NY99).
T1 sequence: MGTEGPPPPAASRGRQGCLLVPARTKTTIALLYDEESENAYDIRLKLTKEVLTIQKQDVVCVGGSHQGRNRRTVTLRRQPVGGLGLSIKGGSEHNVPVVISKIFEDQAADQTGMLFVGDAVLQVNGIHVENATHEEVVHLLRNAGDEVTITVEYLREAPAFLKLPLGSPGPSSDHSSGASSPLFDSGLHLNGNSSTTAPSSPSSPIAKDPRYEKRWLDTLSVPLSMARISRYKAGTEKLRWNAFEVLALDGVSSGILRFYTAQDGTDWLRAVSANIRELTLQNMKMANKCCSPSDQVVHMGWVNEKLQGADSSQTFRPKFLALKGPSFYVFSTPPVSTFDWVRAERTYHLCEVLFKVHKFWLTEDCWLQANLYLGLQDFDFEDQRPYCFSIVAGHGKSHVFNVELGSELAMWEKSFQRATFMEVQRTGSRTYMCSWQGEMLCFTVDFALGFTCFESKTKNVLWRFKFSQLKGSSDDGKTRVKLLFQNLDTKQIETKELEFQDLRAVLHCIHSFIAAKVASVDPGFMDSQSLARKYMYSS

The next experiment addresses T2, GST/Syn‐PDZ (human) (UniProt Q9NY99).
T2 sequence: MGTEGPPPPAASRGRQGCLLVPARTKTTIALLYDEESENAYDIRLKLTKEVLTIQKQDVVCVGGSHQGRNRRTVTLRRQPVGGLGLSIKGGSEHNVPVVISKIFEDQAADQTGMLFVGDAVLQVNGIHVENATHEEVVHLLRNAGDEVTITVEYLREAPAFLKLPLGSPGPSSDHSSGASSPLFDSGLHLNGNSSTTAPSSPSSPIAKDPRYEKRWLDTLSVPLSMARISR

The target in a further experiment is T3, GST/Syn‐ΔPDZ (human) (UniProt Q9NY99).
T3 sequence: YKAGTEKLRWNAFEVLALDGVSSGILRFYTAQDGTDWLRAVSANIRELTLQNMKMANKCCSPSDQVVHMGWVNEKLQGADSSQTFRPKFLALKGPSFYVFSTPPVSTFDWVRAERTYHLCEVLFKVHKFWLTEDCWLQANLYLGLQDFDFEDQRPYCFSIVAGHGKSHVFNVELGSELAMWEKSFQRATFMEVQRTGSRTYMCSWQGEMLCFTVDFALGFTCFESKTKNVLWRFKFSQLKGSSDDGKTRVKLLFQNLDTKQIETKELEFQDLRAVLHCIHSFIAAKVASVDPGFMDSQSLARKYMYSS

B1: NBCn1 in membrane lysates of rat brains (protein, UniProt Q9R1N3 1-1218)
chain: MEADGAGEQMRPLLTRGPDEEAVVDLGKTSSTVNTKFEKEELESHRAVYVGVHVPFSKESRRRHRHRGHKHHHRRRKDKDSDKEDGRESPSYDTPSQRVQFILGTEDDDEEHIPHDLFTEMDELCYRDGEEYEWKETARWLKFEEDVEDGGDRWSKPYVATLSLHSLFELRSCILNGTVMLDMRASTLDEIADMVLDNMIASGQLDDSIRENVREALLKRHHHQNEKRFTSRIPLVRSFADIGKKHSDPHLLERNGEGLSASRHSLRTGLSASNLSLRGESPLSLLLSHLLPSSRAGTPAGSRCTTPVPTPQNSPPSSPSLSRLTSRSSQQTQPQAPEVLVSPDRDDIPRVVIHPPEEDIEALKGQEQKNEENTDFTPGILASPQSAPGNLDSSKSGEVKGNGSGGSRENSTVDFSKVDMNFMRKIPTGAEASNVLVGEVDFLERPIIAFVRLAPAVLLSGLTEVPVPTRFLFLLLGPAGKAPQYHEIGRSIATLMTDEIFHDVAYKAKDRNDLLSGIDEFLDQVTVLPPGEWDPSIRIEPPKSVPSQEKRKIPAFPNGSAPVSADPPKEADHHAGPELQRTGRLFGGLILDIKRKAPFFLSDFKDALSLQCLASILFLYCACMSPVITFGGLLGEATEGRISAIESLFGASLTGIAYSLFAGQPLTILGSTGPVLVFEKILFKFCRDYHLSYLSLRTSIGLWTSFLCIVLVATDASSLVCYITRFTEEAFAALICIIFIYEALEKLFHLGEIYAFNMHNNLDALTSYTCVCAEPSNPSNETVELWERKNVTAASISWANLTVSECKTFHGMFVGSACGPHGPYVPDVLFWCVVLFFTTFFLSSFLKQFKTKRYFPTKVRSTISDFAVFLTIVIMVAIDYLVGIPSPKLHVPEKFEPTDPSRGWIISPLGDNPWWTLLIAAVPALLCTILIFMDQQITAVIINRKEHKLKKGAGYHLDLLMVAVMLGVCSIMGLPWFVAATVLSISHVNSLKVESECSAPGEQPKFLGIREQRVTGLMIFILMGLSVFMTSVLKFIPMPVLYGVFLYMGVSSLKGIQFFDRIKLFGMPAKHQPDLIYLRYVPLWKVHVFTVVQLTCLVLLWVIKASAAAVVFPMMVLALVFVRKLMDLCFTKRELSWLDDLMPESKKKKEDDKKKKEKEEAERMLQGDGDTVHLPFERGSLLQIPVKTLKYSPEKPVSVTINFEDEPSKKYMDAETSL
B1: the results for the binding entry with GST/Syn‐full (human), with GST/Syn‐PDZ (human) and with GST/Syn‐ΔPDZ (human) were “binds”, “binds” and “no binding”, respectively.
